PMC4094278, “The Dictyostelium discoideum RACK1 orthologue has roles in growth and development” (Cell Communication and Signaling : CCS, 2014)
Results are given in words; binding and its absence hold for the method and conditions named. In cells and extracts the contact can be indirect. Some binding calls cover weakened binding; strength is not graded here. For some of these results: Where a sequence is shown, tags or fusion partners need not be part of it.

Assays:
GST-Gα8 (D. discoideum) = molecular target: T1, GST-Gα8 (D. discoideum) (UniProt P34046); assay: pull-down; GST or GST-fusion proteins on beads incubated 3 h with AX2 lysate (50 mM Tris/HCl pH 7.4, 150 mM NaCl, 0.5% NP40); endogenous DdRACK1 detected by western blot; only the target purified
T1 sequence: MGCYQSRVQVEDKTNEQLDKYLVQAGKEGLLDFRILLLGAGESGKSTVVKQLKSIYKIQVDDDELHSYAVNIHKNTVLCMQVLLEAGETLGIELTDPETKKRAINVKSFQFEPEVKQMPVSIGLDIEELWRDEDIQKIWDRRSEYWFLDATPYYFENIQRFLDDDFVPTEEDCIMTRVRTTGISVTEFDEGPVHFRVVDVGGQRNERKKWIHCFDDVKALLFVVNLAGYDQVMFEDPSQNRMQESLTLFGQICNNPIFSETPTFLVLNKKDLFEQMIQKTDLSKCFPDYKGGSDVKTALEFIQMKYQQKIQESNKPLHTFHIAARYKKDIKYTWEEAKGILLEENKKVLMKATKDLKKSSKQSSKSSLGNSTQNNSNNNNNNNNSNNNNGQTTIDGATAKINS

GST-Gα4 (D. discoideum) = molecular target: T2, GST-Gα4 (D. discoideum) (UniProt P34042); assay: as above
T2 sequence: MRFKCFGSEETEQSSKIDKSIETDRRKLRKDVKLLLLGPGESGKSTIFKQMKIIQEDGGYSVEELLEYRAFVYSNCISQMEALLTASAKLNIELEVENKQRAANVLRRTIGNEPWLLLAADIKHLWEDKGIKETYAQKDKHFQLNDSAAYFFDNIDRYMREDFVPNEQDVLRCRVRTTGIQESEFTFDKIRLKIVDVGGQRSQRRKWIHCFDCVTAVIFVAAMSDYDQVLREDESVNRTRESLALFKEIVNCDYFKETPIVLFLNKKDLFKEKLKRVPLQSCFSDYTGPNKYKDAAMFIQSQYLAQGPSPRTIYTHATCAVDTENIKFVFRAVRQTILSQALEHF

GST-Gα2 (D. discoideum) = molecular target: T3, GST-Gα2 (D. discoideum) (UniProt P16051); assay: as above
T3 sequence: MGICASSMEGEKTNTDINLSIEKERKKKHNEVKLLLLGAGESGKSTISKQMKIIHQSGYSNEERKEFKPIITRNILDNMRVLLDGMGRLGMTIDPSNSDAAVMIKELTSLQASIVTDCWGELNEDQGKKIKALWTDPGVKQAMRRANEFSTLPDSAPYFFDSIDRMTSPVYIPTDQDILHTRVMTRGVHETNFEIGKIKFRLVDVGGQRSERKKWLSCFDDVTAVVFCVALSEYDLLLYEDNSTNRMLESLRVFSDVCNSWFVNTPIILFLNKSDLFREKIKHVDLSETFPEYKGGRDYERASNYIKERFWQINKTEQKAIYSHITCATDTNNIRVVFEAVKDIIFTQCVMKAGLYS

GST-Gγ (D. discoideum) = molecular target: T4, GST-Gγ (D. discoideum) (UniProt Q95ZG8); assay: as above
T4 sequence: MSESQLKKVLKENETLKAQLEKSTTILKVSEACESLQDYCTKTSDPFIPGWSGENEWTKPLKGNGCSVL

Gα8-RFP (D. discoideum) = molecular target: T5, Gα8-RFP (D. discoideum) (UniProt P34046); assay: co-IP; GFP-, YFP- or RFP-tagged protein from AX2 lysates bound to GFP-trap or RFP-trap beads; lysis in 10 mM Tris/HCl pH 7.4, 150 mM NaCl, 0.5% NP40; 3 h; endogenous DdRACK1 detected by western blot with polyclonal antibodies
T5 sequence: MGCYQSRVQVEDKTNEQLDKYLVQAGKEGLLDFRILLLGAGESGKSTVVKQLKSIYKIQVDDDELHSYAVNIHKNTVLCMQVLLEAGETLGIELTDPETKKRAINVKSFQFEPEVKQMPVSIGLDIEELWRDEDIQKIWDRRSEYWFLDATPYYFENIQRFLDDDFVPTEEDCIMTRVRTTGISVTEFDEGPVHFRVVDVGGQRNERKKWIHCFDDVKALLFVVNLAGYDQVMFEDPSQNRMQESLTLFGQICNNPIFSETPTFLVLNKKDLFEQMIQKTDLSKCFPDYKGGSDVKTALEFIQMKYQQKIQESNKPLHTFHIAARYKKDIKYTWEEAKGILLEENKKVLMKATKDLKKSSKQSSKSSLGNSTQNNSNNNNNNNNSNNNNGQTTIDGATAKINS

Gα4-RFP (D. discoideum) = molecular target: T6, Gα4-RFP (D. discoideum) (UniProt P34042); assay: as above
T6 sequence: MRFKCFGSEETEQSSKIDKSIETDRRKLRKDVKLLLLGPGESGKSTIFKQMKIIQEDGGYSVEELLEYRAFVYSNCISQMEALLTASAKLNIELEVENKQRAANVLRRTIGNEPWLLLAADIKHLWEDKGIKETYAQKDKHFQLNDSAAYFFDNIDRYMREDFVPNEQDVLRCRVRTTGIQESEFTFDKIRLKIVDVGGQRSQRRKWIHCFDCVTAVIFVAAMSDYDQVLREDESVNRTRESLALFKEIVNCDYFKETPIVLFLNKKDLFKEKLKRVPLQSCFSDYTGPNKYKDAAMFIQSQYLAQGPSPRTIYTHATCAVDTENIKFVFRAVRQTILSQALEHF

GFP-Gβ (D. discoideum) = molecular target: T7, GFP-Gβ (D. discoideum) (UniProt P36408); assay: as above
T7 sequence: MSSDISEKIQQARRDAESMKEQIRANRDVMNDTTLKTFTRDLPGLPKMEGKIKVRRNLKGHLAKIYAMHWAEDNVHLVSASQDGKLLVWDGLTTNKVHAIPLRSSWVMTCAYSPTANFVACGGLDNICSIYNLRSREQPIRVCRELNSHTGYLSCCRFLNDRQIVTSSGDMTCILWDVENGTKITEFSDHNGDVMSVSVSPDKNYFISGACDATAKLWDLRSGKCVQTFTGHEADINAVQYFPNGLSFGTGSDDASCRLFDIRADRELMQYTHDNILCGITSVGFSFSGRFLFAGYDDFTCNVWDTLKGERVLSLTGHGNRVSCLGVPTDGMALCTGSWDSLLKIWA

Gα2-RFP (D. discoideum) = molecular target: T8, Gα2-RFP (D. discoideum) (UniProt P16051); assay: as above
T8 sequence: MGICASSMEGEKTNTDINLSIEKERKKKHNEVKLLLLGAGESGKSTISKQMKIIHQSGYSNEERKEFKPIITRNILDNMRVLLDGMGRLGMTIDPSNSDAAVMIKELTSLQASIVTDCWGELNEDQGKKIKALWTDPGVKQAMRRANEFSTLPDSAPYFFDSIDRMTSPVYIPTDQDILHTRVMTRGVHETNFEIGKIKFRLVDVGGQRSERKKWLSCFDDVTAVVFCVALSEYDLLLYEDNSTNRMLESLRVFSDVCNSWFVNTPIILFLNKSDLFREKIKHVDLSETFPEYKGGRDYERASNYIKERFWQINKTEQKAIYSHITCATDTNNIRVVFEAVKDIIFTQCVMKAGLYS

Gγ-YFP (D. discoideum) = molecular target: T9, Gγ-YFP (D. discoideum) (UniProt Q95ZG8); assay: as above
T9 sequence: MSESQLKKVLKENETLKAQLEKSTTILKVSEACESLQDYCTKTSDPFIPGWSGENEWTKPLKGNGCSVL

[1] = molecular target: T10, GFP-DdRACK1 (D. discoideum) (UniProt P46800); assay: as above
T10 sequence: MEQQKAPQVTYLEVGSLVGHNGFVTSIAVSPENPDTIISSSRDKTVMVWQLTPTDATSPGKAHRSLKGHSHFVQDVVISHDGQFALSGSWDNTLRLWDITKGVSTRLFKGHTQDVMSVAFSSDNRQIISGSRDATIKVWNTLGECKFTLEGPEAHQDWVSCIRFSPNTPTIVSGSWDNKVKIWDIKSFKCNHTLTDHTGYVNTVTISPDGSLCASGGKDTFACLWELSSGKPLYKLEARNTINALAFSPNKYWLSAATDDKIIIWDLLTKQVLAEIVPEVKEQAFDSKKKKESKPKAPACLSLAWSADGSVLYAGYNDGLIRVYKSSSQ

Measured: binding

B1: endogenous DdRACK1 (protein, UniProt P46800 1-329)
chain: MEQQKAPQVTYLEVGSLVGHNGFVTSIAVSPENPDTIISSSRDKTVMVWQLTPTDATSPGKAHRSLKGHSHFVQDVVISHDGQFALSGSWDNTLRLWDITKGVSTRLFKGHTQDVMSVAFSSDNRQIISGSRDATIKVWNTLGECKFTLEGPEAHQDWVSCIRFSPNTPTIVSGSWDNKVKIWDIKSFKCNHTLTDHTGYVNTVTISPDGSLCASGGKDTFACLWELSSGKPLYKLEARNTINALAFSPNKYWLSAATDDKIIIWDLLTKQVLAEIVPEVKEQAFDSKKKKESKPKAPACLSLAWSADGSVLYAGYNDGLIRVYKSSSQ
binds: GST-Gα8 (D. discoideum) | GST-Gα4 (D. discoideum) | GST-Gα2 (D. discoideum) | GST-Gγ (D. discoideum) | Gα8-RFP (D. discoideum) | Gα4-RFP (D. discoideum) | GFP-Gβ (D. discoideum) | Gα2-RFP (D. discoideum) | Gγ-YFP (D. discoideum) | [1]
